# Test results from the supplement of paper PMC8728848.
# The other results are listed elsewhere or left out.
# B1: CLECb-Precomplexed (Mus musculus), P43025 (protein)
# chain: MAKNGLVLCILVVSLLLDQTDGYPSRMKARKHSKRRVKAKDDDLKSQVEKLWREVNALKEMQALQTVCLRGTKVHKKCYLASEGLKHYHEANEDCISKGGTLVVPRNSDEINALRDYGKRSLPGVNDFWLGINDMVTEGKFLDVHGFAVSFLNWDRAQPSGGKRENCVLFSQSAQGKWSDEACRSSKRYICEFIIPTRTRPLEQKLISEEDLAANDILDYKDDDDKV
# Experiments:
# Test in all cases: glycan array binding signal (z-score within array); higher = stronger binding
# Settings in all cases: glycan notation: IUPAC condensed, linker removed
# [1] = target: GlcNAc(b1-3)Gal(b1-4)GlcNAc(b1-3)Gal(b1-4)GlcNAc(b1-3)GalNAc
# Summary of the method: (§1)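 From the Consortium for Functional Glycomics database, 3228 arrays were curated, keeping only those whose protein sequence was available. Binding is given as a within-array Z-score averaged across arrays sharing a protein sequence and across linkers. Negative Z-scores can be read as non-binding.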
# [2] = target: GlcNAc(b1-3)Gal(b1-4)GlcNAc(b1-3)GalNAc
# Summary of the method: as §1
# [3] = target: GlcNAc(b1-3)Gal(b1-4)GlcNAc(b1-3)[GlcNAc(b1-3)Gal(b1-4)GlcNAc(b1-3)]GalNAc
# Summary of the method: as §1
# [4] = target: GlcNAc(b1-3)Gal(b1-4)GlcNAc(b1-6)[Gal(b1-3)]GalNAc
# Summary of the method: as §1
# [5] = target: GlcNAc(b1-3)Gal(b1-4)GlcNAc(b1-6)[GlcNAc(b1-3)Gal(b1-3)]GalNAc
# Summary of the method: as §1
# [6] = target: GlcNAc(b1-3)Gal(b1-4)GlcNAc(b1-6)[GlcNAc(b1-3)]Gal(b1-4)GlcNAc
# Summary of the method: as §1
# GlcNAc(b1-3)GalNAc = target: GlcNAc(b1-3)GalNAc
# Summary of the method: as §1
# GlcNAc(b1-3)Man = target: GlcNAc(b1-3)Man
# Summary of the method: as §1
# [7] = target: GlcNAc(b1-3)[GlcNAc(b1-4)][GlcNAc(b1-6)]GlcNAc
# Summary of the method: as §1
# [8] = target: GlcNAc(b1-3)[GlcNAc(b1-6)]Gal(b1-4)GlcNAc
# Summary of the method: as §1
# [9] = target: GlcNAc(b1-3)[GlcNAc(b1-6)]GalNAc
# Summary of the method: as §1
# [10] = target: GlcNAc(b1-4)Gal(b1-4)GlcNAc
# Summary of the method: as §1
# GlcNAc(b1-4)GlcNAc = target: GlcNAc(b1-4)GlcNAc
# Summary of the method: as §1
# [11] = target: GlcNAc(b1-4)GlcNAc(b1-4)GlcNAc
# Summary of the method: as §1
# [12] = target: GlcNAc(b1-4)GlcNAc(b1-4)GlcNAc(b1-4)GlcNAc(b1-4)GlcNAc
# Summary of the method: as §1
# [13] = target: GlcNAc(b1-4)GlcNAc(b1-4)GlcNAc(b1-4)GlcNAc(b1-4)GlcNAc(b1-4)GlcNAc
# Summary of the method: as §1
# [14] = target: GlcNAc(b1-4)[GlcNAc(b1-6)]GalNAc
# Summary of the method: as §1
# [15] = target: GlcNAc(b1-6)Gal(b1-4)GlcNAc
# Summary of the method: as §1
# GlcNAc(b1-6)GalNAc = target: GlcNAc(b1-6)GalNAc
# Summary of the method: as §1
# [16] = target: GlcNAc6S(b1-3)Gal(b1-4)GlcNAc
# Summary of the method: as §1
# Kdn(a2-3)Gal(b1-3)GalNAc = target: Kdn(a2-3)Gal(b1-3)GalNAc
# Summary of the method: as §1
# Kdn(a2-3)Gal(b1-3)GlcNAc = target: Kdn(a2-3)Gal(b1-3)GlcNAc
# Summary of the method: as §1
# Kdn(a2-3)Gal(b1-4)Glc = target: Kdn(a2-3)Gal(b1-4)Glc
# Summary of the method: as §1
# Kdn(a2-3)Gal(b1-4)GlcNAc = target: Kdn(a2-3)Gal(b1-4)GlcNAc
# Summary of the method: as §1
# [17] = target: Kdn(a2-3)Gal(b1-4)[Fuc(a1-3)]GlcNAc
# Summary of the method: as §1
# Kdn(a2-6)Gal(b1-4)GlcNAc = target: Kdn(a2-6)Gal(b1-4)GlcNAc
# Summary of the method: as §1
# [18] = target: Man(a1-2)Man(a1-2)Man(a1-3)Man
# Summary of the method: as §1
# [19] = target: Man(a1-2)Man(a1-2)Man(a1-6)[Man(a1-3)]Man
# Summary of the method: as §1
# Man(a1-2)Man(a1-3)Man = target: Man(a1-2)Man(a1-3)Man
# Summary of the method: as §1
# [20] = target: Man(a1-2)Man(a1-3)[Man(a1-2)Man(a1-6)]Man
# Summary of the method: as §1
# [21] = target: Man(a1-2)Man(a1-3)[Man(a1-2)Man(a1-6)]Man(a1-6)[Man(a1-2)Man(a1-2)Man(a1-3)]Man
# Summary of the method: as §1
# [22] = target: Man(a1-2)Man(a1-3)[Man(a1-2)Man(a1-6)]Man(a1-6)[Man(a1-2)Man(a1-2)Man(a1-3)]Man(b1-4)GlcNAc(b1-4)GlcNAc
# Summary of the method: as §1
# [23] = target: Man(a1-2)Man(a1-3)[Man(a1-6)]Man(a1-6)[Man(a1-2)Man(a1-3)]Man(b1-4)GlcNAc(b1-4)GlcNAc
# Summary of the method: as §1
# [24] = target: Man(a1-2)Man(a1-6)[Man(a1-3)]Man(a1-6)[Man(a1-2)Man(a1-2)Man(a1-3)]Man
# Summary of the method: as §1
# [25] = target: Man(a1-2)Man(a1-6)[Man(a1-3)]Man(a1-6)[Man(a1-2)Man(a1-2)Man(a1-3)]Man(b1-4)GlcNAc(b1-4)GlcNAc
# Summary of the method: as §1
# Man(a1-3)[Man(a1-6)]Man = target: Man(a1-3)[Man(a1-6)]Man
# Summary of the method: as §1
# [26] = target: Man(a1-3)[Man(a1-6)]Man(a1-6)[Man(a1-2)Man(a1-3)]Man(b1-4)GlcNAc(b1-4)GlcNAc
# Summary of the method: as §1
# [27] = target: Man(a1-3)[Man(a1-6)]Man(a1-6)[Man(a1-3)]Man
# Summary of the method: as §1
# [28] = target: Man(a1-3)[Man(a1-6)]Man(a1-6)[Man(a1-3)]Man(b1-4)GlcNAc(b1-4)GlcNAc
# Summary of the method: as §1
# [29] = target: Man(a1-3)[Man(a1-6)]Man(b1-4)GlcNAc(b1-4)GlcNAc
# Summary of the method: as §1
# [30] = target: Man(a1-3)[Man(a1-6)]Man(b1-4)GlcNAc(b1-4)[Fuc(a1-6)]GlcNAc
# Summary of the method: as §1
# Man(a1-6)Man = target: Man(a1-6)Man
# Summary of the method: as §1
# Man(b1-4)GlcNAc = target: Man(b1-4)GlcNAc
# Summary of the method: as §1
# MurNAc(b1-4)GlcNAc = target: MurNAc(b1-4)GlcNAc
# Summary of the method: as §1
# Neu5Ac(a2-3)Gal = target: Neu5Ac(a2-3)Gal
# Summary of the method: as §1
binder,measurement,setting,value
B1,glycan array binding signal (z-score),[1],-0.408
same,glycan array binding signal (z-score),[2],0.019
same,glycan array binding signal (z-score),[3],-0.334
same,glycan array binding signal (z-score),[4],-0.309
same,glycan array binding signal (z-score),[5],0.208
same,glycan array binding signal (z-score),[6],-0.024
same,glycan array binding signal (z-score),GlcNAc(b1-3)GalNAc,-0.282
same,glycan array binding signal (z-score),GlcNAc(b1-3)Man,-0.185
same,glycan array binding signal (z-score),[7],-0.456
same,glycan array binding signal (z-score),[8],-0.296
same,glycan array binding signal (z-score),[9],-0.173
same,glycan array binding signal (z-score),[10],-0.159
same,glycan array binding signal (z-score),GlcNAc(b1-4)GlcNAc,-0.072
same,glycan array binding signal (z-score),[11],-0.15
same,glycan array binding signal (z-score),[12],-0.326
same,glycan array binding signal (z-score),[13],-0.322
same,glycan array binding signal (z-score),[14],0.264
same,glycan array binding signal (z-score),[15],-0.575
same,glycan array binding signal (z-score),GlcNAc(b1-6)GalNAc,-0.354
same,glycan array binding signal (z-score),[16],-0.319
same,glycan array binding signal (z-score),Kdn(a2-3)Gal(b1-3)GalNAc,-0.702
same,glycan array binding signal (z-score),Kdn(a2-3)Gal(b1-3)GlcNAc,-0.459
same,glycan array binding signal (z-score),Kdn(a2-3)Gal(b1-4)Glc,-0.106
same,glycan array binding signal (z-score),Kdn(a2-3)Gal(b1-4)GlcNAc,-0.42
same,glycan array binding signal (z-score),[17],-0.433
same,glycan array binding signal (z-score),Kdn(a2-6)Gal(b1-4)GlcNAc,-0.461
same,glycan array binding signal (z-score),[18],0.144
same,glycan array binding signal (z-score),[19],0.553
same,glycan array binding signal (z-score),Man(a1-2)Man(a1-3)Man,-0.151
same,glycan array binding signal (z-score),[20],-0.135
same,glycan array binding signal (z-score),[21],-0.161
same,glycan array binding signal (z-score),[22],-0.067
same,glycan array binding signal (z-score),[23],0.329
same,glycan array binding signal (z-score),[24],-0.257
same,glycan array binding signal (z-score),[25],0.003
same,glycan array binding signal (z-score),Man(a1-3)[Man(a1-6)]Man,-0.427
same,glycan array binding signal (z-score),[26],-0.07
same,glycan array binding signal (z-score),[27],-0.045
same,glycan array binding signal (z-score),[28],-0.24
same,glycan array binding signal (z-score),[29],0.041
same,glycan array binding signal (z-score),[30],-0.2
same,glycan array binding signal (z-score),Man(a1-6)Man,0.07
same,glycan array binding signal (z-score),Man(b1-4)GlcNAc,-0.346
same,glycan array binding signal (z-score),MurNAc(b1-4)GlcNAc,-0.525
same,glycan array binding signal (z-score),Neu5Ac(a2-3)Gal,-0.063
